The other results are listed elsewhere or left out.
T1: UNK ZnF1-3 (human, UniProt Q9C0B0 31-174)
T1 sequence: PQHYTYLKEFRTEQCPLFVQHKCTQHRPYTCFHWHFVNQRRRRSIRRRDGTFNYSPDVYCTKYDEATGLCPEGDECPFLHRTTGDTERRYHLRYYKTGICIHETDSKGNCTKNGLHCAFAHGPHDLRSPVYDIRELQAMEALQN

B1: 48025950_48026070_549_CDS_ENSG00000116062_ENST00000540021|human|control|control (ssRNA)
RNA: GGGAGUUCUACAGUCCGACGAUCCCUAGAGCUUUUCCUUUUAAGAGAGCCAUUUCCAGUCACCAUUCUCUUCCGCUUUCGAGCAACUUUGACAGGGCUGUUCAGGCCUUCACUCUCACUAUCCCCCACUCCACUGCUUAUUUCCAACAGAGGAUUGAGCAUCA
B2: chr17:37088456:37088457:-_ENSMUSG00000036398_ENSMUST00000040402|mus_mus|motif|central (ssRNA)
RNA: GGGAGUUCUACAGUCCGACGAUCGUAACCGUUGUCUCAGUGACGGUCUCACUUAUCCCGGCCCCUGUCUCCGCCAUGGCGGAAGCGAAAAGCGAGAAAGCGGGAUGAGACACCCUUUCCUUUUUCUGAGCCUCAGAGAUCUAACAACAGAGGAUUGAGCAUCA
B3: chr10:120833061:120833062:-_ENSG00000107581_ENST00000369144|perfect_dup|FALSE|FALSE (ssRNA)
RNA: GGGAGUUCUACAGUCCGACGAUCCUGAGAUUCUUCUUUAGCAGCUUCAGUUUUUUCCUCUGCCAUUUUCAAAUAUGCCCUAACAACAUCCUCCAGAGAUUUUAUGUUCACCUGUUGACAAAUGUUCUUAUACUGGUAUAACCCCAACAGAGGAUUGAGCAUCA
B4: chr11:88578658:88578659:-_ENSMUSG00000069769_ENSMUST00000107909|perfect_dup|motif|central (ssRNA)
RNA: GGGAGUUCUACAGUCCGACGAUCGGAGCGUUUCGUAGUGGGAUCUCUCAUGACCAUACAUUCUCUAAUUUCUCCAAAUUUGCGGAAAUAGUCUCUAAGGCUAUCUGGUGAGGUCUGCCAGCUCAGUCCACCGAUAAACAUUUUCAACAGAGGAUUGAGCAUCA
B5: chr1:121442827:121442828:-_ENSMUSG00000026383_ENSMUST00000052404|mus_mus|motif|central (ssRNA)
RNA: GGGAGUUCUACAGUCCGACGAUCAAACAACAAAUGAACAUGAUACCUGCCAAAUGAAAAGACAAGAAGCUUUCUUAGAAACGGUGUUCCCAGGUGUAGUGGCAUAGCCUUUAAUGAAGCACUCAGGAGGCAGAGGCAGGAGGACAACAGAGGAUUGAGCAUCA
B6: 209119718_209119838_79_3pUTR_ENSG00000138413_ENST00000345146|human|control|control (ssRNA)
RNA: GGGAGUUCUACAGUCCGACGAUCGACUCACAACCACAGCCUGGCAAUCCCAAACCGGACUCCCAGUGCCUCCGCUUCUGAAGUAGACUCUGCAGAAACCCGGGACCACAGGGUAGGUCCGAGCUUUUCCUCUUCCCGGCUUUGCAACAGAGGAUUGAGCAUCA

Each binder was assayed against T1, UNK ZnF1-3 (assay: nsRBNS (natural sequence RNA bind-n-seq); RBNS binding buffer (assumed for nsRBNS): 25 mM Tris pH 7.5, 150 mM KCl, 3 mM MgCl2, 0.01% Triton X-100, 500 ug/ml BSA, 20 U/ml SUPERase-In, 4 C; UNK is unkempt and MSI1 is Musashi-1; names of the RNAs are library labels; protein concentration not given here; high values mean tight binding).

Row | Binder | binding signal
1 | B1 | 0.761 enrichment R
2 | B2 | 0.692 enrichment R
3 | B3 | 0.835 enrichment R
4 | B4 | 0.875 enrichment R
5 | B5 | 1.5 enrichment R
6 | B6 | 0.535 enrichment R

Source: PMC12136788
